The results in this text go back to patent publication US20240158442A1, “MULTIFUNCTIONAL POLYPEPTIDE AND APPLICATION THEREOF IN FIELD OF MEDICINES” (Wuhan Innerse Pharmaceutical Inc., priority 2021, published 2024).

Ends that are not written are not given here.

This data set in a line: Dose-effect experiment, body weight of MCAO model animals. Conditions: for Lost Weight (D 0 body weight − D 2 body weight): 3 mg/kg i.v., model control 48.92 ± 5.78. The procedure:
Measurement time: the body weight was measured at least twice during the accommodation, and each batch of rats were weighed once on the day before the surgery and on the day of dissection to calculate the amount of drug administered and the anesthetic applied; the body weight was measured twice a week after the surgery.
The effect of test substance on the weight of model animals: cerebral ischemia-reperfusion is an acute injury model, wherein the weight of experimental animals will drop dramatically after MCAO modeling. Thus, the weight of experimental animals is one of the most basic sensitive parameters to comprehensively reflect the health status of animals. In this experiment, the body weight of all the animals was monitored from first day after the surgery, and the results of animal's body weight change are shown in Table 11. There was no difference in the weight of the animals in each group before modeling.

Turning to “YGRKKRRQRRRKLSSIESDV [Example S1, nerinetide]”, the “Lost Weight (D 0 body weight − D 2 body weight)” value amounted to 48.22 ± 8.23 g. For the same sequence, where the note is “listed as Positive drug”, the “Lost Weight (D 0 body weight − D 2 body weight)” value was 48.22 ± 8.23 g. In addition, where the note is “MCAO rats, 1 day after surgery, S1 3 mg/kg, S5 0.6-15 mg/kg i.v.”, the “influence on body weight” value is given as “no significant influence on rat's body weight”.
